Drawing on PubChem BioAssay AID2060490 (Molecular Pharmacology Branch, DTP, NCI, 2025), this text covers viability, T/C and IC50 for eight molecules.

The source holds more than one record for some entries. Only these are listed. An entry can have further records. Values given together repeat one measurement (runs, samples, wells, individuals or studies). Marks such as (2×) count equal records among those shown.

The test has as its system 885512-296-R-J2-PDC complex spheroid viability. Description: Anticancer human tumor 885512-296-R-J2-PDC patient-derived breast carcinoma cell line growth inhibition [GQUAD]. As to conditions: for viability, T/C: stronger effect = lower value; for IC50: compound alone. An excerpt: DNA G-quadruplex Stabilizer Agents in Combinations in Complex Spheroids
A high-throughput screen of multi-cell type tumor spheroids was designed to identify active combinations of DNA G-quadruplex stabilizer agents and targeted small molecules. Complex spheroids include a stromal component modeled by human endothelial cells (HUVEC) and fibroblasts modeled by human mesenchymal stem cells (MSCs). The concentration ranges selected for each drug and investigational agent were based upon clinically achievable concentrations if the clinical Cmax of the agent was known.
Compounds. The drugs and investigational agents: pidnarulex (CX-5461; NSC782164), APTO-253 (NSC789042), BRACO-19 (NSC847499), peposertib (NSC802822), ceralasertib (NSC780249), elimusertib (NSC800525), camonsertib (NSC841442), AZD-1390 (NSC803789), olaparib (NSC753686), talazoparib (NSC767125), ART-558 (NSC835418), sotorasib (NSC818433), MRTX-1133 (NSC836407), SN-38 (NSC673596), topotecan (NSC609699), etoposide (NSC141540), doxorubicin (NSC123127), gemcitabine (NSC613327), 5-fluorouracil (NSC19893), paclitaxel (NSC125973), vemurafenib (NSC761431), panobinostat (NSC761190), R-306465 (JNJ-16241199; NSC773264), adavosertib (NSC754352), TP-3654 (NSC805149), carboplatin (NSC241240), KSQ-4279 (NSC840948), and staurosporine (NSC755774) were obtained from the National Cancer Institute (NCI) Developmental Therapeutics Program Chemical Repository (34). The FDA-approved anticancer drug set is available from the NCI Developmental Therapeutics Program. […] The stock solutions were prepared in dimethyl sulfoxide (DMSO, Sigma-Aldrich, St. Louis, MO, cat. D2650) at 800-fold the tested concentration and stored at -70 degrees C prior to their use. All drugs and investigational agents were tested over a range starting from a high concentration at or near the clinical Cmax and decreasing in half-log increments. If the clinical Cmax for an agent had not been determined, the highest concentration tested was 10 microM.
2.3 Cell Culture. All cells were maintained in an incubator at 37 degrees C and 5% CO2 with 95% humidity. The PDC lines were cultured according to standard operating procedures established by the NCI PDMR. All PDCs were thawed and cultured in Matrigel-coated flasks prepared with a working solution of 1X Ham's F-12 nutrient mix, without supplementation (Invitrogen, cat. 11765054), 100 U/mL penicillin-streptomycin (Invitrogen, cat. 15140122), and 2.5% Matrigel (Corning Inc., cat. 354248) for the first three passages. The 857933-349-R-J2-PDC line was cultured in 6C/Colon 1B media, which includes advanced DMEM/F-12 (Thermo Fisher Scientific, cat. 12634028), 10 mM HEPES (Thermo Fisher Scientific, cat. 15630080), 1X GlutaMAX supplement (Thermo Fisher Scientific, cat. 35050061), 0.1 mg/mL primocin (InvivoGen, cat. ant-pm-2), 10% defined fetal bovine serum, heat inactivated (HyClone Laboratories Inc., cat. SH30070.03HI), 50% L-WRN conditioned media (ATCC, cat. CRL-3276), 1.25 mM N-Acetyl-L-cysteine (Sigma-Aldrich, cat. A9165), 10 mM nicotinamide (Sigma-Aldrich, cat. N0636), 1X B-27 supplement (Thermo Fisher Scientific, cat. 17504044), 1X N-2 supplement (Thermo Fisher Scientific, cat. 17502048), 10 microM Y-27632 dihydrochloride (Tocris Bioscience, cat. 1254), and 50 ng/mL human EGF recombinant protein (Thermo Fisher Scientific, cat. PHG0311). The 485176-168-R4-J1-PDC line was cultured in Panc media, which includes all 6C/Colon 1B media components plus 100 ng/mL human FGF-10 (Thermo Fisher Scientific, cat. 100-26), 500 nM SB-431542 (Selleckchem, cat. S1067), and gastrin (Tocris, cat. 3006).
[…]
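Note: spheroids exposed to the compounds for one week.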
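Throughout, for viability, T/C: percent of tumor spheroid viability relative to DMSO vehicle control wells.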

As to `Cc1[nH]c2ccc(F)cc2c1-c1nc2c3cccnc3c3ncccc3c2[nH]1`, under “compound alone 3.16 µM”, the viability, T/C is listed as 25.6, 19.3, 22, 20.8, 16.1, 37.9, 12.7, 12.2, 8.41, 9.48, 10.6, 9.88%.
`Cc1[nH]c2ccccc2c1CCNCc1ccc(/C=C/C(=O)NO)cc1`: the IC50 was 41.1 nM, > 316 nM, 26 nM. Moreover, for the setting “compound alone 0.316 µM”, the viability, T/C was 4%, 77%, 4.3%.
As for `Cc1cnc(CNC(=O)c2c(=O)c3ccc(N4CCCN(C)CC4)nc3n3c2sc2ccccc23)cn1`, the viability, T/C (compound alone 0.1 µM) is 63.4, 68.6, 68.2, 49, 59.4, 61.9, 58.4, 61, 74.8, 63.1, 64.5, 69.7%.
Take `COc1ncnc(C2CC2)c1-c1ncc2cnn(Cc3ccc(-c4nc(C(F)(F)F)cn4C(C)C)cc3)c2n1`: the IC50 was > 10 µM (2×) and 579 nM. For the same molecule, the viability, T/C (compound alone 10 µM) is 98.5%, 2.48%, 87.2%.
As to `O=C(NO)c1cnc(N2CCN(S(=O)(=O)c3ccc4ccccc4c3)CC2)nc1`, the viability, T/C is 85.8%, 5.24%, 78.8% (compound alone 0.0316 µM) and 76.8%, 2.91%, 55.6% (compound alone 0.1 µM).
For `CC(=O)O[C@H]1C(=O)[C@@]2(C)[C@H]([C@H](OC(=O)c3ccccc3)[C@]3(O)C[C@H](OC(=O)[C@H](O)[C@@H](NC(=O)c4ccccc4)c4ccccc4)C(C)=C1C3(C)C)[C@]1(OC(C)=O)CO[C@@H]1C[C@@H]2O`, under “compound alone 0.1 µM”, the viability, T/C is recorded as 3.6%, 52.8%, 3.36%.
For `C=CCn1c(=O)c2cnc(Nc3ccc(N4CCN(C)CC4)cc3)nc2n1-c1cccc(C(C)(C)O)n1`, the IC50 is on record as 377 nM, 7.59 µM, 314 nM. Further, the viability, T/C (compound alone 3.16 µM) is on record as 3.36%, 99.1%, 2.68%. For the same molecule, where the note is “compound alone 10 µM”, the viability, T/C is given as 2.77%, 34.1%, 2.62%.
In the case of `CCCS(=O)(=O)Nc1ccc(F)c(C(=O)c2c[nH]c3ncc(-c4ccc(Cl)cc4)cc23)c1F`, the IC50 was > 10 µM, 451 nM, 7.36 µM. Moreover, the viability, T/C (compound alone 3.16 µM) is on record as 96.9%, 2.52%, 89.9%. In addition, the viability, T/C (compound alone 10 µM) was 61.3%, 3.42%, 35.7%.
